Reference: the antibiotic and cytotoxicity screens of Wong et al. (2023)
The other results are listed elsewhere or left out.

Key:
HSkMC = human skeletal muscle cells; test: cytotoxicity call (relative viability < 0.9); details: 10 µM
HepG2 = test: cytotoxicity call (relative viability < 0.9); details: 10 µM
S. aureus RN4220 = test: growth inhibition call (relative growth <= 0.2); details: 50 µM

In the case of `CCCNC(=O)c1cc2c(c(-c3cccc(-c4cc5ccccc5o4)c3)n1)[C@H](CCO)N(C(=O)NC(C)C)C2`, the cytotoxicity call (HSkMC) is reported as “inactive”, the cytotoxicity call (HepG2) is reported as “inactive” and the growth inhibition call (S. aureus RN4220) is reported as “inactive”.

`O=C(C[C@H]1C[C@@H]2c3cc(NS(=O)(=O)c4ccc(F)cc4)ccc3O[C@@H]2[C@@H](CO)O1)NCc1cccnc1` was tested, and the cytotoxicity call (HSkMC) was “inactive”, the cytotoxicity call (HepG2) was “inactive” and the growth inhibition call (S. aureus RN4220) was “inactive”.

`COc1ccc(S(=O)(=O)N(C)C[C@H]2OCCCC[C@H](C)Oc3ccc(NS(=O)(=O)c4ccc(Cl)cc4)cc3C(=O)N([C@H](C)CO)C[C@@H]2C)cc1` was tested, and the cytotoxicity call (HSkMC) was “inactive”, the cytotoxicity call (HepG2) was “active” and the growth inhibition call (S. aureus RN4220) was “inactive”.

`O=C(Nc1cccc2cccnc12)[C@@H]1[C@H](c2cccc(Br)c2)CC(=O)N1C(=O)OCc1ccccc1` was tested, and the cytotoxicity call (HSkMC) was “inactive”, the cytotoxicity call (HepG2) was “inactive” and the growth inhibition call (S. aureus RN4220) was “inactive”.

In the case of `CC(C)[C@@H](CO)N1C(=O)[C@@H]2[C@H]3C(=O)OCCC/C=C\[C@H]3O[C@]23C=CCN(c2ccc4ccccc4c2)C(=O)[C@@H]13`, the cytotoxicity call (HSkMC) is reported as “inactive”, the cytotoxicity call (HepG2) is reported as “inactive” and the growth inhibition call (S. aureus RN4220) is reported as “inactive”.

`CC(=O)Nc1ccc(C(C)C)c(C)c1` was tested, and the cytotoxicity call (HSkMC) was “inactive”, the cytotoxicity call (HepG2) was “inactive” and the growth inhibition call (S. aureus RN4220) was “inactive”.

`CN(C)CC(=O)Nc1ccc2c(c1)C(=O)N(C)[C@H]1CC[C@H](CC(=O)Nc3cccc(Cl)c3)O[C@@H]1CO2` was tested, and the cytotoxicity call (HSkMC) was “inactive”, the cytotoxicity call (HepG2) was “inactive” and the growth inhibition call (S. aureus RN4220) was “inactive”.

For `Cc1ccccc1S(=O)(=O)N1C[C@H](O)COC[C@@H]2O[C@@H](CC(=O)NCc3ccccc3Cl)CC[C@H]21`, the cytotoxicity call (HSkMC) was “inactive”, the cytotoxicity call (HepG2) was “inactive” and the growth inhibition call (S. aureus RN4220) was “inactive”.

With `C[C@@H]1CCCCO[C@H](CN(C)Cc2ccc(C(F)(F)F)cc2)[C@@H](C)CN([C@H](C)CO)C(=O)c2cc(NS(=O)(=O)c3cccs3)ccc2O1` the cytotoxicity call (HSkMC) was “inactive”, the cytotoxicity call (HepG2) was “inactive” and the growth inhibition call (S. aureus RN4220) was “inactive”.

For `C[C@H]1CCCCO[C@H](CN(C)C(=O)Nc2ccc(C(F)(F)F)cc2)[C@@H](C)CN([C@@H](C)CO)C(=O)c2cc(NS(=O)(=O)c3cccs3)ccc2O1`, the cytotoxicity call (HSkMC) was “inactive”, the cytotoxicity call (HepG2) was “inactive” and the growth inhibition call (S. aureus RN4220) was “inactive”.

For `COc1ccc(S(=O)(=O)Nc2ccc3c(c2)C(=O)N([C@@H](C)CO)C[C@H](C)[C@H](CN(C)S(=O)(=O)c2ccccc2)O3)cc1`, the cytotoxicity call (HSkMC) was “inactive”, the cytotoxicity call (HepG2) was “inactive” and the growth inhibition call (S. aureus RN4220) was “inactive”.

With `C[C@H]1CN([C@@H](C)CO)S(=O)(=O)c2ccc(Br)cc2O[C@@H]1CN(C)C(=O)c1cccnc1` the cytotoxicity call (HSkMC) was “inactive”, the cytotoxicity call (HepG2) was “inactive” and the growth inhibition call (S. aureus RN4220) was “inactive”.

In the case of `COc1cccc(C(=O)Nc2ccc3c(c2)C(=O)N(C)[C@H]2CC[C@H](CC(=O)NCC(F)(F)F)O[C@H]2CO3)c1`, the cytotoxicity call (HSkMC) is reported as “inactive”, the cytotoxicity call (HepG2) is reported as “inactive” and the growth inhibition call (S. aureus RN4220) is reported as “inactive”.

In the case of `CO[C@@H]1CN(C)C(=O)c2cc(NS(=O)(=O)CC(F)(F)F)ccc2OC[C@H](C)N(Cc2cccnc2)C[C@@H]1C`, the cytotoxicity call (HSkMC) is reported as “inactive”, the cytotoxicity call (HepG2) is reported as “inactive” and the growth inhibition call (S. aureus RN4220) is reported as “inactive”.

With `Cc1cc(OCCCS(C)(=O)=O)cc(C)c1-c1cccc(COc2ccc3c(c2)OC[C@H]3CC(=O)O)c1` the cytotoxicity call (HSkMC) was “active”, the cytotoxicity call (HepG2) was “active” and the growth inhibition call (S. aureus RN4220) was “active”.

For `Cc1noc(C)c1S(=O)(=O)N(C)C[C@@H]1Oc2ccc(NS(=O)(=O)c3ccc(F)cc3)cc2CC(=O)N([C@H](C)CO)C[C@H]1C`, the cytotoxicity call (HSkMC) was “inactive”, the cytotoxicity call (HepG2) was “inactive” and the growth inhibition call (S. aureus RN4220) was “inactive”.

For `COc1ccc(NC(=O)N(C)C[C@@H]2OCCCC[C@H](C)Oc3ccc(NC(=O)Nc4ccccc4)cc3C(=O)N([C@H](C)CO)C[C@@H]2C)cc1`, the cytotoxicity call (HSkMC) was “inactive”, the cytotoxicity call (HepG2) was “inactive” and the growth inhibition call (S. aureus RN4220) was “inactive”.

For `CC(C)(C)c1cccc(CN)c1`, the cytotoxicity call (HSkMC) was “inactive”, the cytotoxicity call (HepG2) was “inactive” and the growth inhibition call (S. aureus RN4220) was “inactive”.

In the case of `C[C@@H]1CN([C@@H](C)CO)C(=O)Cc2cc(NS(=O)(=O)c3ccc(Cl)cc3)ccc2O[C@H]1CN(C)C(=O)Nc1cccc2ccccc12`, the cytotoxicity call (HSkMC) is reported as “inactive”, the cytotoxicity call (HepG2) is reported as “inactive” and the growth inhibition call (S. aureus RN4220) is reported as “inactive”.

With `CC(C)NC(=O)N(C)C[C@H]1Oc2ccc(NC(=O)Cc3ccccc3)cc2C(=O)N([C@H](C)CO)C[C@@H]1C` the cytotoxicity call (HSkMC) was “inactive”, the cytotoxicity call (HepG2) was “inactive” and the growth inhibition call (S. aureus RN4220) was “inactive”.

For `O=C(O)Cn1c(=O)oc2ccccc21`, the cytotoxicity call (HSkMC) was “inactive”, the cytotoxicity call (HepG2) was “inactive” and the growth inhibition call (S. aureus RN4220) was “inactive”.

For `C[C@@H]1CN([C@H](C)CO)C(=O)c2cccc(NS(C)(=O)=O)c2O[C@@H]1CN(C)Cc1ccc2c(c1)OCO2`, the cytotoxicity call (HSkMC) was “inactive”, the cytotoxicity call (HepG2) was “inactive” and the growth inhibition call (S. aureus RN4220) was “inactive”.

With `Cc1noc(C)c1S(=O)(=O)Nc1ccc2c(c1)CC(=O)N([C@H](C)CO)C[C@@H](C)[C@H](CN(C)C(=O)NC(C)C)O2` the cytotoxicity call (HSkMC) was “inactive”, the cytotoxicity call (HepG2) was “inactive” and the growth inhibition call (S. aureus RN4220) was “inactive”.

With `C[C@@H]1CN([C@@H](C)CO)C(=O)Cc2cc(NS(=O)(=O)c3ccc(Cl)cc3)ccc2O[C@@H]1CN(C)Cc1ccc(Cl)c(Cl)c1` the cytotoxicity call (HSkMC) was “active”, the cytotoxicity call (HepG2) was “active” and the growth inhibition call (S. aureus RN4220) was “inactive”.

With `CC(C)(C)C(=O)C(Oc1ccc(Cl)cc1)n1ccnc1` (stereo not drawn) the cytotoxicity call (HSkMC) was “inactive”, the cytotoxicity call (HepG2) was “inactive” and the growth inhibition call (S. aureus RN4220) was “inactive”.

`C[C@H]1CN([C@@H](C)CO)C(=O)c2cc(NC(=O)Nc3ccc(F)cc3)ccc2O[C@H]1CN(C)S(C)(=O)=O` was tested, and the cytotoxicity call (HSkMC) was “inactive”, the cytotoxicity call (HepG2) was “inactive” and the growth inhibition call (S. aureus RN4220) was “inactive”.
